Reference: PubChem BioAssay AID1671194 (National Center for Advancing Translational Sciences (NCATS), 2021)
Screen size: about 140,000 compounds; about 240 (0.17%) were called active. Inconclusive results, whose numbers are uncertain, are shown with a selection of clear calls. Calls come from the whole dose curve; as a rule, active = well fitted inhibition curve with a large enough effect; inconclusive = small, poorly fitted or top-dose-only effect; inactive = no such curve, though single readings can be large or run the other way. A potency beside an inconclusive call is a rough fit, not a confirmed value.

Assay: Primary qHTS assay for inhibitors of alpha-synuclein gene (SNCA) expression; note: nearly all actives have a fitted effect of over 45% in size;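 for activity change, negative = inhibition: plate controls were DMSO cells for no effect and cell-free wells for full effect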
Conditions: HEK-293 SNCA-luciferase knock-in, luminescence, 24 h; activity change, negative = inhibition: at 57.2 µM (top of the series) unless noted
Potency is the fitted concentration of half-maximal effect; tags give direction and shape of the fitted curve.

Potency, active:
CO[C@H]1C=CC=C(C)C(=O)NC2=CC(=O)C(NCCN(C)C)=C(C[C@@H](C)C[C@H](OC)[C@@H](O)[C@@H](C)C=C(C)[C@@H]1OC(N)=O)C2=O 0.0541 µM

Potency, inconclusive:
COc1cc2c(=O)c(C(=O)c3ccc(C)c(C)c3)cn(Cc3ccc(F)cc3)c2cc1OC 39.8 µM [inhibitor, single point]
CC(C)=CCn1c(-c2cc(C)oc2C)cn2cc(C(=O)N3CCCC3C)nc2c1=O (stereo not drawn) 39.8 µM [inhibitor, single point]
COCc1ccc(C(=O)N2CCNCC(C(=O)O)C2)cc1 (stereo not drawn) 39.8 µM [inhibitor, single point]
Cc1cccc(-c2nc(C3CC(=O)N(c4ccc(F)c(Cl)c4)C3)no2)c1 (stereo not drawn) 39.8 µM [inhibitor, single point]
COc1ccc(S(=O)Cc2ccc(C(=O)N3CCN(c4cccc(C)c4C)CC3)o2)cc1 (stereo not drawn) 3.98 µM [inhibitor, full curve, poor fit]
COc1cc(NC(=O)CC2C(=O)OCCN2Cc2ccccc2)cc(OC)c1 (stereo not drawn) 0.282 µM [inhibitor, single point]
CCOCCOC1CCN(C(=O)Cc2cccc(OC)c2)CC1 1.78 µM [inhibitor, partial curve, poor fit]
CCOc1ccc2c(n1)CCN(C(=O)NC1CCCC1)C2 39.8 µM [inhibitor, single point]
CCCc1noc(-c2cccn3c(CNC(=O)c4ccc(F)cc4Cl)nnc23)n1 22.4 µM [inhibitor, partial curve, poor fit]
COc1ccc(OC)c(CCNC(=O)c2ccc3c(c2)c(C)c(C)n3Cc2ccccc2)c1 20 µM [inhibitor, single point]
O=C1NCc2ccccc2CC12CCCN2Cc1cccc(Cl)c1 (stereo not drawn) 50.1 µM [inhibitor, single point]
Cc1ccc(Cl)cc1N1CCN(C2(c3ccccc3)C(=O)c3ccccc3C2=O)CC1 7.08 µM [inhibitor, single point]
CC(=O)N1Cc2ccccc2CC2(CCN(Cc3ccncc3)C2)C1 (stereo not drawn) 2 µM [inhibitor, partial curve, poor fit]
CNC(=O)[C@@H]1CN(C(=O)Cc2ccccc2Br)C[C@H]1CO 8.91 µM [inhibitor, single point]
O=C(Nc1ccc2[nH]ccc2c1)c1ccc(-c2ncc3cnc(C4=CCOCC4)cn23)cc1 2.24 µM [inhibitor, full curve, poor fit]
O=C(NCc1ccccc1Cl)c1ccc2c(c1)N(Cc1ccccc1)C(=O)c1ccccc1S2 22.4 µM [inhibitor, single point]
COc1ccccc1-c1cncnc1N1CCN(C)CC1 5.62 µM [inhibitor, full curve, poor fit]
COc1cc(OC)cc(C(=O)NCCc2csc(-c3cccc(C)c3)n2)c1 39.8 µM [inhibitor, single point]
COc1cccc(C(=O)N2CCC3(CC2)OCC(C(=O)N2CCCC2)N3C(=O)c2ccccc2C)c1 (stereo not drawn) 25.1 µM [inhibitor, single point]
CN(C)c1ccc(CN2CCc3nc(N4CCN(c5ccccn5)CC4)ncc3C2)cc1 20 µM [inhibitor, single point]
COc1ccc(S(=O)(=O)N[C@H](C)c2onc(C)c2C(=O)O)cc1 4.47 µM [inhibitor, partial curve, poor fit]
COc1ccc2ccc(OCc3nc(C(=O)N4CCCC(C)(CO)C4)co3)cc2c1 (stereo not drawn) 17.8 µM [inhibitor, single point]
COc1ccc(Nc2ncc(C(=O)N3CCN(c4ccc(OC)cc4)CC3)c3ccccc23)cc1 31.6 µM [inhibitor, partial curve, poor fit]
COc1cccc(-c2cccc(COc3cnc4c(ccn4CC(=O)O)c3)c2)c1F 8.91 µM [inhibitor, single point]
CN1CCC(NC(=O)c2nc3nc(-c4ccccc4)c(-c4cccc(O)c4)cc3n2C)CC1 11.2 µM [inhibitor, partial curve, poor fit]
COc1ccc(S(=O)(=O)NC(C)C)cc1-n1cnnn1 3.55 µM [inhibitor, single point]
Cc1ccc(-c2cc(N3CCCN(C(=O)Cc4ccccc4)CC3)n[nH]2)cc1C 39.8 µM [inhibitor, single point]
COc1ccc(CNC(=O)CSCc2cnn(-c3ccccc3)c2-n2cccc2)cc1OC 3.55 µM [inhibitor, full curve]
O=C(Cc1cccc(Cl)c1)N1CCCC(c2nn(-c3cccc(Cl)c3)c(=O)[nH]2)C1 (stereo not drawn) 22.4 µM [inhibitor, single point]
CNCC(=O)N1CCC(C2CCN(C(=O)NC)CC2)C1 (stereo not drawn) 10 µM [inhibitor, partial curve, poor fit]
Cn1c(CO[C@H]2CN(Cc3ccc4c(c3)OCCO4)C[C@H]2F)nc2ccccc21 12.6 µM [inhibitor, single point]
O=C(c1ccncc1)N1CCC2(CC1)NC(=O)N(Cc1ccccc1Cl)C2=O 3.16 µM [inhibitor, single point]
COC(=O)c1ccccc1C(=O)N1CCCC(N2CCN(c3ccc(F)cc3)CC2)C1 (stereo not drawn) 3.16 µM [inhibitor, full curve, poor fit]
O=C1CC2(CCN(C(=O)c3ccc(Cl)cc3)C2)Nc2ccccc2N1 (stereo not drawn) 7.94 µM [inhibitor, full curve, poor fit]
Cc1cc(C)n(CCC(=O)NCC2CCN(c3cc(-c4ccccc4)[nH]n3)CC2)n1 11.2 µM [inhibitor, single point]
COc1ccc(C)cc1NC(=O)c1ccc2nc(Cc3ccccc3)oc2c1 25.1 µM [inhibitor, single point]
Cc1c(C(=O)NCc2ccccc2)oc2ccc(S(=O)(=O)N3CCC(C)CC3)cc12 7.08 µM [inhibitor, single point]
Cc1ccc(NC(=O)C(=O)NCC(c2cccnc2)N2CCN(C)CC2)cc1 (stereo not drawn) 7.08 µM [inhibitor, single point]
CN1CCC(C(=O)N2Cc3ccccc3CC3(CCN(Cc4cccnc4)C3)C2)CC1 (stereo not drawn) 3.98 µM [inhibitor, single point]
Cc1cccc(S(=O)(=O)N2CCc3c(C(=O)NC(C)C)cccc32)c1 39.8 µM [inhibitor, single point]
CC1=C(C)C(=O)C(CCCCC#CCCCC#CCO)=C(C)C1=O 1.58 µM [inhibitor, partial curve, poor fit]
COc1ccc2cc1Nc1ccc(cc1)C[C@H](NC(=O)Cc1cccc(Cl)c1)C(=O)N(C)[C@H](C(=O)NCCC(C)C)C2 39.8 µM [inhibitor, single point]
CC(C)(C)OC(=O)N1CCC(c2c(C(=O)NCc3ccc4c(c3)OCO4)cnn2-c2ccc(F)cc2F)CC1 39.8 µM [inhibitor, single point]
CC(C)NC(=O)NC[C@H]1O[C@@H]2C[C@@H](CC(=O)NCc3nccn3C)O[C@@H]2[C@@H]1O 14.1 µM [inhibitor, partial curve]

Activity change, negative = inhibition, inactive:
O=C(c1ccc(Cl)nc1)N1CCCC(C(=O)N2CCC(c3nc4ncccc4[nH]3)C2)C1 (stereo not drawn) 6.65%
COc1ccc2nc([C@H]3CCN(Cc4ccc(C(=O)O)cc4)C3)[nH]c2c1 -3.75% [at 87.6 µM]
O=C(c1cscn1)N1CCc2nn(CC3CC3)c(=O)n2CC1 -2.15%
COc1ccccc1N1CCN(C(=O)CN2C(=O)C(c3ccccc3)=NC2(C)C)CC1 -15.2%
CN(C)C[C@@H]1CN(Cc2cccnc2)C[C@H]1NC(=O)c1ccc(F)c(Cl)c1 -15.5%
O=C(NC1CCN(c2cc(-c3ccccc3)[nH]n2)CC1)c1ccc2ccccc2n1 -13.5%
O=C1CCN(Cc2ccccc2OCC(O)CN2CCCCC2)CCN1 (stereo not drawn) 12.6%
CS(=O)(=O)c1ccc(OC[C@H]2C[C@@H](NC(=O)C3CCOCC3)[C@H](O)[C@@H]2O)cc1 -18.8% [at 87.6 µM]
NC(=O)C1CCN(c2ncnc3c2cnn3-c2ccccc2)CC1 55.1%
COc1cccc(CN2CC[C@@H]3C(=O)NCCCCCCN(Cc4ccncc4)[C@@H]3C2)c1OC -2.38%
COc1ccc(Cl)cc1-c1ccc2c(c1)C(=O)N1CCN(C(=O)CN)C[C@H]1C(=O)N2 -7.92% [at 87.6 µM]
COc1ccc(-c2c(C(=O)NCCc3ccccc3)nc3sccn23)cc1 -2.08%
COc1ccc(Cl)cc1C(C(=O)O)N1CCCN(c2ncccn2)CC1 (stereo not drawn) 0.32%
CN1C(=O)CCC2(CNC(=O)c3ccsc3)CCC=C12 (stereo not drawn) 6.59%
COc1ccc(NC(=O)N2CCC(Oc3ncccc3C(=O)N3CCCCC3)C2)c(C)c1 (stereo not drawn) -5.55%
CCn1c2ccccc2c2cc(CN3CCN(Cc4ccc(OC)c(OC)c4)CC3)ccc21 4.65%
O=C(Oc1ccccc1)N1CCC2(CC1)CN(c1ccccn1)C2 8.18%
C#C[C@]1(O)CC[C@H]2[C@@H]3CCc4cc(OC)ccc4[C@H]3CC[C@@]21C 31.2% [at 25.6 µM]
